Reference: publication PMC4337420
Results are given in words; binding and its absence hold for the method and conditions named. Binding seen in cells or lysates may run through a third protein. Some binding calls cover weakened binding; strength is not graded here. For some assays here: Where a sequence is shown, tags or fusion partners need not be part of it.

The chains behind the UniProt entries cited, without tags or fusion partners. Where a name states a change or a piece, a line headed by the entry shows the natural chain unless it says otherwise. A line that says so, or that is headed by a name, gives the form on record, which may keep a tag or linker.
UniProt Q95V55: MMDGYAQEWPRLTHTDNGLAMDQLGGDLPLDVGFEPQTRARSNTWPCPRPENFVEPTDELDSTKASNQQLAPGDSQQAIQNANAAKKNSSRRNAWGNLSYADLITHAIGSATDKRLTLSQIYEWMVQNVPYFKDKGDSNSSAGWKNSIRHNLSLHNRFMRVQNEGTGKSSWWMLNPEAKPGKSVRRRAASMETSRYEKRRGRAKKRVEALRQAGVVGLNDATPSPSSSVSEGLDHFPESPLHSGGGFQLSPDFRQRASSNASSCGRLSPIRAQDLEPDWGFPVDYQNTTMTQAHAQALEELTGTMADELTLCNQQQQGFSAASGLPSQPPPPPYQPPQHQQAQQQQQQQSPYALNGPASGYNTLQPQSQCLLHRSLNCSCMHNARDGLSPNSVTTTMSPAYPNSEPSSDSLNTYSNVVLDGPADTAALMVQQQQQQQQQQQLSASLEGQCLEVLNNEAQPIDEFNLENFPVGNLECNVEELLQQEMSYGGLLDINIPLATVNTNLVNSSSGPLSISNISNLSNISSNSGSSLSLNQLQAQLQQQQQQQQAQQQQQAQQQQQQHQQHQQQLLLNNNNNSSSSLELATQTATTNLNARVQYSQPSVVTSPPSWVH
GST-tagged full length FoxO with K204 mutated to alanine (Q95V55-1, form named): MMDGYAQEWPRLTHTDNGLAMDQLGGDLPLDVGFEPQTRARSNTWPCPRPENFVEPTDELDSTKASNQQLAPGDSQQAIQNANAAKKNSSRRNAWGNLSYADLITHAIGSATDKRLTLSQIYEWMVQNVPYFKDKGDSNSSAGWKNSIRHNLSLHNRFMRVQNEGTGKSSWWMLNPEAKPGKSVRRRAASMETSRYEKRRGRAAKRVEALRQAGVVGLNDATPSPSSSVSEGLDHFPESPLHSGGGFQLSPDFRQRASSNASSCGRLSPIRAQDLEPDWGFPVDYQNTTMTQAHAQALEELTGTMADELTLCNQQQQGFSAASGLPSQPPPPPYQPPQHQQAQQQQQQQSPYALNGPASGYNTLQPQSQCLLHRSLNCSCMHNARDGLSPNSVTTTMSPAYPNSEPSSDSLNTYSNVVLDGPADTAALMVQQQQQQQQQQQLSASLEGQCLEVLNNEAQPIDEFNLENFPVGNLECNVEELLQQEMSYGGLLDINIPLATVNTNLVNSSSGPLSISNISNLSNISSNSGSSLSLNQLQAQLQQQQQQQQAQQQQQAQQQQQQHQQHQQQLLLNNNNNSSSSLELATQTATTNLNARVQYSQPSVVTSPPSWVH
GST-tagged full length FoxO with N175 mutated to alanine (Q95V55-1, form named): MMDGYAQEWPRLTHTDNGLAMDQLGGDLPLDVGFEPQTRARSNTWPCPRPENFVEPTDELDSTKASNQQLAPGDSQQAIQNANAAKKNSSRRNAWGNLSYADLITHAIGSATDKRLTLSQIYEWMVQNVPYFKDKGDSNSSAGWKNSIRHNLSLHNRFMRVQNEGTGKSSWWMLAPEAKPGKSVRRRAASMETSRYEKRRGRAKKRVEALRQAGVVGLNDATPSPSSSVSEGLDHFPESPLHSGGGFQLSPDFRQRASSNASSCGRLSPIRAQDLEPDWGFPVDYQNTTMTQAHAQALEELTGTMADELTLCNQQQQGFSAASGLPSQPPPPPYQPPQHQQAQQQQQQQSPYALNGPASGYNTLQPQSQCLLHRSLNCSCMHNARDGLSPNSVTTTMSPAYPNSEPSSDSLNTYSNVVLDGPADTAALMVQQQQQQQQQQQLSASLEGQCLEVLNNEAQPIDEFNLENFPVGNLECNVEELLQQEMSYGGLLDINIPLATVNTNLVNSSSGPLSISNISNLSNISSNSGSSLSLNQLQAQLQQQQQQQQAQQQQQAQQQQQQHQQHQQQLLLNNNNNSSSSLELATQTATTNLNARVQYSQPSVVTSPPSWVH
GST-tagged full length FoxO with R202 mutated to alanine (Q95V55-1, form named): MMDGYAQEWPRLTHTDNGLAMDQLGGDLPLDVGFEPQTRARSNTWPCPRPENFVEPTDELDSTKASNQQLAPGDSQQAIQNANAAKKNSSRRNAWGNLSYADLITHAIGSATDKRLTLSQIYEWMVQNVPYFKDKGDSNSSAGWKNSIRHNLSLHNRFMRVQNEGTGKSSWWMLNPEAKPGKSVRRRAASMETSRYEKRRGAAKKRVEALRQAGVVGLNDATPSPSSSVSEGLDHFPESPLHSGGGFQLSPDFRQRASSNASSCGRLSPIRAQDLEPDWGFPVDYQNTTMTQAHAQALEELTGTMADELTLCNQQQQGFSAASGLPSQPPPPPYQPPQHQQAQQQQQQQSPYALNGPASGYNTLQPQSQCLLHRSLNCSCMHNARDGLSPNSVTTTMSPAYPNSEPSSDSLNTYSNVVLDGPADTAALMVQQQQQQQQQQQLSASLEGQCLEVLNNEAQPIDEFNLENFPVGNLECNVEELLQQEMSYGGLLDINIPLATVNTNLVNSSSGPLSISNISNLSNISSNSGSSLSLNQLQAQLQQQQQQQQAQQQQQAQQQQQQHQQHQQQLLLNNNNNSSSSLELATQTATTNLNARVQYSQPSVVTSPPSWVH
GST-tagged full length FoxO with W172 mutated to alanine (Q95V55-1, form named): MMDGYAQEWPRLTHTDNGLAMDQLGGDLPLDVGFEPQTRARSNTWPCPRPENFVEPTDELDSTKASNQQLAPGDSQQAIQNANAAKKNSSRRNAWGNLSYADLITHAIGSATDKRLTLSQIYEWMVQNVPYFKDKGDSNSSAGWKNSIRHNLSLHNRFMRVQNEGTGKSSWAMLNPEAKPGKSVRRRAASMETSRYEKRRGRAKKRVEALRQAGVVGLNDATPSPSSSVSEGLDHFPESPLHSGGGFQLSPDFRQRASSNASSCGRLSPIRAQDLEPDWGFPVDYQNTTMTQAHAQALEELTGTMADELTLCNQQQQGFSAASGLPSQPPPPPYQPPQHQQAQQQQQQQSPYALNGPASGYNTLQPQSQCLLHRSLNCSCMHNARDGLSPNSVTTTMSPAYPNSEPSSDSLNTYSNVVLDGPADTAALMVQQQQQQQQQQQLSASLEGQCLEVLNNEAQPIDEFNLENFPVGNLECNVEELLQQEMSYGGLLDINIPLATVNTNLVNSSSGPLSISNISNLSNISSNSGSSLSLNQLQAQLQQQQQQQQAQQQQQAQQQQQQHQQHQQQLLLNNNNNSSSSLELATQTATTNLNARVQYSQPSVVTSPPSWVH

T1: Ultraspiracle (Usp), endogenous in larvae (Drosophila melanogaster (endogenous in w[1118] larvae)) (UniProt P20153)
T1 sequence: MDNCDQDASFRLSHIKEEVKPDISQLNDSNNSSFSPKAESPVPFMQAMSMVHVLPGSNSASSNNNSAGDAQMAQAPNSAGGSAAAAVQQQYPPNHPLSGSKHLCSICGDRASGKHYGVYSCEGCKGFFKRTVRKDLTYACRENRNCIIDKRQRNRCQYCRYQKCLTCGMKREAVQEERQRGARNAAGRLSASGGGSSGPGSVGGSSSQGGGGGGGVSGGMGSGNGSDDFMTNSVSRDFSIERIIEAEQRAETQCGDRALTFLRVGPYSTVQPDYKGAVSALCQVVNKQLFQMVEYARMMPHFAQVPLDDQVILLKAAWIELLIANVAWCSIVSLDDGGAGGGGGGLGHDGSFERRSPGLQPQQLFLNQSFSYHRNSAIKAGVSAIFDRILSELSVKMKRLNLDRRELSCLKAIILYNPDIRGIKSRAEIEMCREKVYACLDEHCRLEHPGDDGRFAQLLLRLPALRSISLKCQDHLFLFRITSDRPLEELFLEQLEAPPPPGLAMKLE

T2: Ecdysone Receptor (EcR), endogenous in larvae (Drosophila melanogaster (endogenous in w[1118] larvae)) (UniProt P34021)
T2 sequence: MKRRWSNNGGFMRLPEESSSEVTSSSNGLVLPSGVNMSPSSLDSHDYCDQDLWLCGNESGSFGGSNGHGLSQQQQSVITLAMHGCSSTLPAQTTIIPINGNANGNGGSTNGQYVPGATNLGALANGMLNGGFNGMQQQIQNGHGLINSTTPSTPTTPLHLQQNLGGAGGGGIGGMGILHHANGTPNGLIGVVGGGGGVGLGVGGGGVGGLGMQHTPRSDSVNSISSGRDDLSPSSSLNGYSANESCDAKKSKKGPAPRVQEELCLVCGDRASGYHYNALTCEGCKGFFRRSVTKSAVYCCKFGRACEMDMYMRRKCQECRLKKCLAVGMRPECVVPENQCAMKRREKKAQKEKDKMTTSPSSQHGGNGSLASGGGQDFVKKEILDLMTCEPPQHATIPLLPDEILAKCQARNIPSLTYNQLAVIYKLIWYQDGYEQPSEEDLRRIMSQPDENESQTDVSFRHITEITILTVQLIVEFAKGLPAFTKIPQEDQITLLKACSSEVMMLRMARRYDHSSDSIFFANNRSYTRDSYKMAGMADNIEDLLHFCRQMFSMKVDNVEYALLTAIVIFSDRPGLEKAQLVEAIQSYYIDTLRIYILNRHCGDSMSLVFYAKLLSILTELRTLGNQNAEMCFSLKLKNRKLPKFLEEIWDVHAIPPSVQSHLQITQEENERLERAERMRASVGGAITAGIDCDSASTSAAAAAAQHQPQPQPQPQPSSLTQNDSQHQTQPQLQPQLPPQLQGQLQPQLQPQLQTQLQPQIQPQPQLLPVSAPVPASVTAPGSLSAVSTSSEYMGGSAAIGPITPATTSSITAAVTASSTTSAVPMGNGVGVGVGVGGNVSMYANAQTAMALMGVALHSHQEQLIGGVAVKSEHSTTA


Legend:
[1] = target: T1, Ultraspiracle (Usp), endogenous in larvae (Drosophila melanogaster (endogenous in w[1118] larvae)); experiment: condition: only well-fed post-critical weight larvae; co-IP; as a3, but extract of well-fed post-critical weight larvae (fed on standard fly medium for additional 24 hr); precipitation with anti-Usp (AB11)
[2] = target: T2, Ecdysone Receptor (EcR), endogenous in larvae (Drosophila melanogaster (endogenous in w[1118] larvae)); experiment: co-IP; 500 µg protein extract of anterior halves (without fat body and salivary glands) of w[1118] larvae, pre-critical weight (0–5 hr AL3E) or protein-starved 24 hr on 20% sucrose; precipitation with anti-Usp (AB11) or anti-EcR (DDA2.7); blots for FoxO, Usp, EcR
[3] = target: T1, Ultraspiracle (Usp), endogenous in larvae (Drosophila melanogaster (endogenous in w[1118] larvae)); experiment: as above
[4] = target: GST-tagged Forkhead Box class O (FoxO), full length (Drosophila melanogaster) (UniProt Q95V55); experiment: pull-down; GST-pulldown as a1, in the presence of 20E (20-hydroxyecdysone)
[5] = target: GST-tagged Forkhead Box class O (FoxO), full length (Drosophila melanogaster) (UniProt Q95V55); experiment: pull-down; GST-pulldown in vitro: GST-tagged FoxO (full length, fragments or point mutants) purified on Glutathione Sepharose 4B as bait; Flag-tagged Usp or EcR detected with anti-Flag M2; source of the Flag-tagged proteins not told
[6] = target: GST-tagged full length FoxO with K204 mutated to alanine (Drosophila melanogaster) (UniProt Q95V55); experiment: as above
[7] = target: GST-tagged full length FoxO with N175 mutated to alanine (Drosophila melanogaster) (UniProt Q95V55); experiment: as above
[8] = target: GST-tagged full length FoxO with R202 mutated to alanine (Drosophila melanogaster) (UniProt Q95V55); experiment: as above
[9] = target: GST-tagged full length FoxO with W172 mutated to alanine (Drosophila melanogaster) (UniProt Q95V55); experiment: as above

| Molecule | binding [3] | binding [4] | binding [5] | other results |
| --- | --- | --- | --- | --- |
| Ecdysone Receptor (EcR), endogenous in larvae (protein, UniProt P34021 1-878) MKRRWSNNGGFMRLPEESSSEVTSSSNGLVLPSGVNMSPSSLDSHDYCDQDLWLCGNESGSFGGSNGHGLSQQQQSVITLAMHGCSSTLPAQTTIIPINGNANGNGGSTNGQYVPGATNLGALANGMLNGGFNGMQQQIQNGHGLINSTTPSTPTTPLHLQQNLGGAGGGGIGGMGILHHANGTPNGLIGVVGGGGGVGLGVGGGGVGGLGMQHTPRSDSVNSISSGRDDLSPSSSLNGYSANESCDAKKSKKGPAPRVQEELCLVCGDRASGYHYNALTCEGCKGFFRRSVTKSAVYCCKFGRACEMDMYMRRKCQECRLKKCLAVGMRPECVVPENQCAMKRREKKAQKEKDKMTTSPSSQHGGNGSLASGGGQDFVKKEILDLMTCEPPQHATIPLLPDEILAKCQARNIPSLTYNQLAVIYKLIWYQDGYEQPSEEDLRRIMSQPDENESQTDVSFRHITEITILTVQLIVEFAKGLPAFTKIPQEDQITLLKACSSEVMMLRMARRYDHSSDSIFFANNRSYTRDSYKMAGMADNIEDLLHFCRQMFSMKVDNVEYALLTAIVIFSDRPGLEKAQLVEAIQSYYIDTLRIYILNRHCGDSMSLVFYAKLLSILTELRTLGNQNAEMCFSLKLKNRKLPKFLEEIWDVHAIPPSVQSHLQITQEENERLERAERMRASVGGAITAGIDCDSASTSAAAAAAQHQPQPQPQPQPSSLTQNDSQHQTQPQLQPQLPPQLQGQLQPQLQPQLQTQLQPQIQPQPQLLPVSAPVPASVTAPGSLSAVSTSSEYMGGSAAIGPITPATTSSITAAVTASSTTSAVPMGNGVGVGVGVGGNVSMYANAQTAMALMGVALHSHQEQLIGGVAVKSEHSTTA | binds | – | – | – |
| Flag-tagged Ecdysone Receptor isoform A (EcR-A), full length (protein, UniProt P34021-2 1-849) MLTTSGQQQSKQKLSTLPSHILLQQQLAASAGPSSSVSLSPSSSAALTLHVASANGGARETTSAAAVKDKLRPTPTAIKIEPMPDVISVGTVAGGSSVATVVAPAATTTSNKPNSTAAPSTSAAAANGHLVLVPNKRPRLDVTEDWMSTPSPGSVPSSAPPLSPSPGSQNHSYNMSNGYASPMSAGSYDPYSPTGKTGRDDLSPSSSLNGYSANESCDAKKSKKGPAPRVQEELCLVCGDRASGYHYNALTCEGCKGFFRRSVTKSAVYCCKFGRACEMDMYMRRKCQECRLKKCLAVGMRPECVVPENQCAMKRREKKAQKEKDKMTTSPSSQHGGNGSLASGGGQDFVKKEILDLMTCEPPQHATIPLLPDEILAKCQARNIPSLTYNQLAVIYKLIWYQDGYEQPSEEDLRRIMSQPDENESQTDVSFRHITEITILTVQLIVEFAKGLPAFTKIPQEDQITLLKACSSEVMMLRMARRYDHSSDSIFFANNRSYTRDSYKMAGMADNIEDLLHFCRQMFSMKVDNVEYALLTAIVIFSDRPGLEKAQLVEAIQSYYIDTLRIYILNRHCGDSMSLVFYAKLLSILTELRTLGNQNAEMCFSLKLKNRKLPKFLEEIWDVHAIPPSVQSHLQITQEENERLERAERMRASVGGAITAGIDCDSASTSAAAAAAQHQPQPQPQPQPSSLTQNDSQHQTQPQLQPQLPPQLQGQLQPQLQPQLQTQLQPQIQPQPQLLPVSAPVPASVTAPGSLSAVSTSSEYMGGSAAIGPITPATTSSITAAVTASSTTSAVPMGNGVGVGVGVGGNVSMYANAQTAMALMGVALHSHQEQLIGGVAVKSEHSTTA | – | no binding | no binding | – |

Further lines, with some results ahead:

| binding [3] | binding [4] | binding [5] | Molecule | other results |
| --- | --- | --- | --- | --- |
| binds | – | – | Forkhead Box class O (FoxO), endogenous in larvae (from UniProt Q95V55-1 1-613) | binding [1]: no binding; binding [2]: no binding |
| – | no binding | no binding | Flag-tagged Ecdysone Receptor isoform B1 (EcR-B1), full length (protein, UniProt P34021-1 1-878) MKRRWSNNGGFMRLPEESSSEVTSSSNGLVLPSGVNMSPSSLDSHDYCDQDLWLCGNESGSFGGSNGHGLSQQQQSVITLAMHGCSSTLPAQTTIIPINGNANGNGGSTNGQYVPGATNLGALANGMLNGGFNGMQQQIQNGHGLINSTTPSTPTTPLHLQQNLGGAGGGGIGGMGILHHANGTPNGLIGVVGGGGGVGLGVGGGGVGGLGMQHTPRSDSVNSISSGRDDLSPSSSLNGYSANESCDAKKSKKGPAPRVQEELCLVCGDRASGYHYNALTCEGCKGFFRRSVTKSAVYCCKFGRACEMDMYMRRKCQECRLKKCLAVGMRPECVVPENQCAMKRREKKAQKEKDKMTTSPSSQHGGNGSLASGGGQDFVKKEILDLMTCEPPQHATIPLLPDEILAKCQARNIPSLTYNQLAVIYKLIWYQDGYEQPSEEDLRRIMSQPDENESQTDVSFRHITEITILTVQLIVEFAKGLPAFTKIPQEDQITLLKACSSEVMMLRMARRYDHSSDSIFFANNRSYTRDSYKMAGMADNIEDLLHFCRQMFSMKVDNVEYALLTAIVIFSDRPGLEKAQLVEAIQSYYIDTLRIYILNRHCGDSMSLVFYAKLLSILTELRTLGNQNAEMCFSLKLKNRKLPKFLEEIWDVHAIPPSVQSHLQITQEENERLERAERMRASVGGAITAGIDCDSASTSAAAAAAQHQPQPQPQPQPSSLTQNDSQHQTQPQLQPQLPPQLQGQLQPQLQPQLQTQLQPQIQPQPQLLPVSAPVPASVTAPGSLSAVSTSSEYMGGSAAIGPITPATTSSITAAVTASSTTSAVPMGNGVGVGVGVGGNVSMYANAQTAMALMGVALHSHQEQLIGGVAVKSEHSTTA | – |
| – | binds | binds | Flag-tagged Ultraspiracle (Usp), full length (protein, UniProt P20153 1-508) MDNCDQDASFRLSHIKEEVKPDISQLNDSNNSSFSPKAESPVPFMQAMSMVHVLPGSNSASSNNNSAGDAQMAQAPNSAGGSAAAAVQQQYPPNHPLSGSKHLCSICGDRASGKHYGVYSCEGCKGFFKRTVRKDLTYACRENRNCIIDKRQRNRCQYCRYQKCLTCGMKREAVQEERQRGARNAAGRLSASGGGSSGPGSVGGSSSQGGGGGGGVSGGMGSGNGSDDFMTNSVSRDFSIERIIEAEQRAETQCGDRALTFLRVGPYSTVQPDYKGAVSALCQVVNKQLFQMVEYARMMPHFAQVPLDDQVILLKAAWIELLIANVAWCSIVSLDDGGAGGGGGGLGHDGSFERRSPGLQPQQLFLNQSFSYHRNSAIKAGVSAIFDRILSELSVKMKRLNLDRRELSCLKAIILYNPDIRGIKSRAEIEMCREKVYACLDEHCRLEHPGDDGRFAQLLLRLPALRSISLKCQDHLFLFRITSDRPLEELFLEQLEAPPPPGLAMKLE | binding [6]: binds; binding [7]: binds; binding [8]: binds; binding [9]: binds |
